Where a name gives a salt, the structure may show the parent alone. Most values come without repeats; read them as rough.

For one test, the system named is SUDHL6 parental. The test is described as follows: estimated IC50 (cell viability); higher = less potent.
The subject of test [1] is SUDHL6 venetoclax-resistant. The test is described as above.
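Further: compound screen comparing venetoclax-resistant SUDHL6, derived by months of escalating venetoclax exposure, with its matched parental line, IC50 from one-site nonlinear dose–response fit, geometric mean for duplicated compounds.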

Turning to `COC(=O)Nc1nc2cc(C(=O)c3cccs3)ccc2[nH]1` [Nocodazole], the entries for the “estimated IC50” value (in the test with SUDHL6 parental; in test [1]) were 0.521 µM and 0.194 µM, respectively.
For `O=C1C2=C(CCN(Cc3ccccc3)C2)N2CCN=C2N1Cc1ccc(F)cc1F` [ONC206] the same measures were 0.87 µM and 0.34 µM.
On to `Cc1cc(O)c(-c2ccc([C@@H](C)CN)cc2)c2c1[nH]c(=O)c1sccc12` [OTS514 hydrochloride], for which the “estimated IC50” value in the test with SUDHL6 parental was 0.074 µM; in test [1], 0.042 µM.
As to `Cc1sc2c(c1C)C(c1ccc(Cl)cc1)=N[C@@H](CC(=O)Nc1ccc(O)cc1)c1nnc(C)n1-2` [OTX015], the “estimated IC50” value in the test on SUDHL6 parental is 1.56 µM; in test [1] it was 0.83 µM.
For `COC1=CC(c2cc3ccccc3[nH]2)=N/C1=C\c1[nH]c(C)cc1C` [Obatoclax Mesylate (GX15-070)], in that order: 0.6 µM and 0.39 µM.
For `C=CC(=O)Nc1cc(Nc2nccc(-c3cn(C)c4ccccc34)n2)c(OC)cc1N(C)CCN(C)C` [Osimertinib (AZD9291)] the same measures were 7.25 µM and 3.37 µM.
For `C=CCc1cccc(/C=N/NC(=O)CN2CCN(Cc3ccccc3)CC2)c1O` [PAC-1] the same measures were 7.2 µM and 3.9 µM.
Consider `O=C(Nc1cccnc1)N1CCC(Cc2cccc(Oc3ccc(C(F)(F)F)cn3)c2)CC1` [PF-3845], for which the “estimated IC50” value in the test with SUDHL6 parental is 5.4 µM; in test [1] it was 3.5 µM.
For `O=C(NNc1ccccn1)c1ccccn1` [PFI-90], in that order: 1.17 µM and 0.527 µM.
With `COc1cc2c(O[C@@H]3O[C@H](CO)[C@@H]4OC(C)(C)O[C@@H]4[C@H]3O)c3c(c(-c4ccc5c(c4)OCO5)c2cc1OC)C(=O)OC3` [PHY34], the entries for the “estimated IC50” value (with SUDHL6 parental; in test [1]) were 0.0013 µM and 0.0001 µM, respectively.
For `Fc1ccc2[nH]ccc2c1-c1nc(N2CCOCC2)c2sc(CN3CCN(CC4CC4)CC3)cc2n1` [PI-3065], in that order: 4.3 µM and 1.9 µM.
For `Cc1ccc([N+](=O)[O-])cc1S(=O)(=O)N(C)/N=C/c1cnc2ccc(Br)cn12` [PIK-75 HCl], the figures for the “estimated IC50” value (in the test with SUDHL6 parental; in test [1]) were 0.59 µM and 0.36 µM, respectively.
For `CC(=O)Nc1nc(C)c(-c2ccc(Cl)c(S(=O)(=O)NCCO)c2)s1` [PIK-93], in that order: 5.98 µM and 1.72 µM.
Turning to `Nc1ncc(-c2ccnc(Nc3ccncc3)n2)c(CC2CC2)n1` [PIK-III], the results for the “estimated IC50” value (in the test on SUDHL6 parental; in test [1]) were > 10 µM and 5.9 µM, respectively.
For `Nc1ncnc2c1c(-c1cnc3[nH]ccc3c1)nn2C1CCCC1` [PP121] the same measures were 3.1 µM and 1.4 µM.
For `Nc1cc(C(F)F)c(-c2nc(N3C4CCC3COC4)nc(N3C4CCC3COC4)n2)cn1` [PQR620] the same measures were 5.1 µM and 2.22 µM.
For `COCC1(CO)C(=O)C2CCN1CC2` (configuration not stated) [PRIMA-1Met], in that order: 4.87 µM and 1.74 µM.
Take `COc1cc(Br)c(Nc2nc(-c3c(C)nc4ncccn34)cs2)c(Br)c1` [PTC-209 HBr]: the “estimated IC50” value was 4.46 µM in the test on SUDHL6 parental and 2.6 µM in test [1].
For `CC(=O)O[C@H]1C(=O)[C@@]2(C)[C@H]([C@H](OC(=O)c3ccccc3)[C@]3(O)C[C@H](OC(=O)[C@H](O)[C@@H](NC(=O)c4ccccc4)c4ccccc4)C(C)=C1C3(C)C)[C@]1(OC(C)=O)CO[C@@H]1C[C@@H]2O` [Paclitaxel], in that order: 0.06 µM and 0.018 µM.
For `C/C(=C\c1csc(C)n1)[C@@H]1C[C@@H]2O[C@]2(C)CCC[C@H](C)[C@H](O)[C@@H](C)C(=O)C(C)(C)[C@@H](O)CC(=O)O1` [Patupilone (EPO906, Epothilone B)] the same measures were 0.05 µM and 0.02 µM.
For `Cc1ccc(Nc2nccc(N(C)c3ccc4c(C)n(C)nc4c3)n2)cc1S(N)(=O)=O` [Pazopanib hydrochloride] the same measures were 3.08 µM and 1.7 µM.

Source of the values: the supplement of paper PMC11171410.
